Laboratory results as given in paper PMC4843017.
These are yes or no findings as the source states them, for the method shown. Some entries that bind do so weakly or less than the wild type. For part of these data: Tags and fused reporters may be left off the sequences shown.

Chains of the proteins cited; added tags and fusions are not shown. Lines headed by an entry give the natural chain unless they say otherwise; changes in a name come on top.
UniProt P81947: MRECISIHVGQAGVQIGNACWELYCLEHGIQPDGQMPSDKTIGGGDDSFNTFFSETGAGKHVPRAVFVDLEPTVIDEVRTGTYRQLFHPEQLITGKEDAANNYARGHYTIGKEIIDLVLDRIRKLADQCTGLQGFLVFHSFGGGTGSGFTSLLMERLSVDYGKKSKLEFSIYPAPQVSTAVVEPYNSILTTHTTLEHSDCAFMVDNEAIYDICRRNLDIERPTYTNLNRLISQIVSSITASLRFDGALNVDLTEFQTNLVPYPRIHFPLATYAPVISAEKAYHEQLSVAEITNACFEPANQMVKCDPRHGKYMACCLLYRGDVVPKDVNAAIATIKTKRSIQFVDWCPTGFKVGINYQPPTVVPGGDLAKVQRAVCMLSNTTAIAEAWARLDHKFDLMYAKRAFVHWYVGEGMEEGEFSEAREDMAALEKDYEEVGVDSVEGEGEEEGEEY
UniProt Q6B856: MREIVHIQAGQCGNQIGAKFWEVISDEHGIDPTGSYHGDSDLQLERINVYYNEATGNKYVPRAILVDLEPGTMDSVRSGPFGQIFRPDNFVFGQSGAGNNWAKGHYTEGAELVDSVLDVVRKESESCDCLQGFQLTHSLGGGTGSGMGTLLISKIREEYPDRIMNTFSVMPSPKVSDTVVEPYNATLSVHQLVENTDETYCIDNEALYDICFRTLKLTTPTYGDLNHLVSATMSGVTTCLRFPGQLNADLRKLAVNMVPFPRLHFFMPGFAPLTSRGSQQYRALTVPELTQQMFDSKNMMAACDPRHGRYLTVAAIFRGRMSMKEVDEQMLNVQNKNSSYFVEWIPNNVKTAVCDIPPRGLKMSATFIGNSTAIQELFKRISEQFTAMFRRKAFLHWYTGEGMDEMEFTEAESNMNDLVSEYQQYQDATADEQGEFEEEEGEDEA

B1: GST-SKAP^135–174 (domain or fragment, UniProt Q9Y448 135-174)
chain: VTKITKLRRENGQMKATDTATRRNVRKGYKPLSKQKSEEE
B2: Astrin^1–239 (domain or fragment, UniProt Q96R06 1-239)
chain: MWRVKKLSLSLSPSPQTGKPSMRTPLRELTLQPGALTNSGKRSPACSSLTPSLCKLGLQEGSNNSSPVDFVNNKRTDLSSEHFSHSSKWLETCQHESDEQPLDPIPQISSTPKTSEEAVDPLGNYMVKTIVLVPSPLGQQQDMIFEARLDTMAETNSISLNGPLRTDDLVREEVAPCMGDRFSEVAAVSEKPIFQESPSHLLEESPPNPCSEQLHCSKESLSSRTEAVREDLVPSESNA
B3: Astrin^966–1,175 (domain or fragment, UniProt Q96R06 966-1175)
chain: MEESLAEMSIMTTELQSLCSLLQESKEEAIRTLQRKICELQARLQAQEEQHQEVQKAKEADIEKLNQALCLRYKNEKELQEVIQQQNEKILEQIDKSGELISLREEVTHLTRSLRRAETETKVLQEALAGQLDSNCQPMATNWIQEKVWLSQEVDKLRVMFLEMKNEKEKLMIKFQSHRNILEENLRRSDKELEKLDDIVQHIYKTLLSI
B4: SKAP^226–316 (domain or fragment, UniProt Q9Y448 226-316)
chain: LDPALGSETLASRQESTTDHMDSMLLLETLQEELKLFNETAKKQMEELQALKVKLEMKEERVRFLEQQTLCNNQVNDLTTALKEMEQLLEM
B5: SKAP^135–225 6A mutant (K140A, K149A, K161A, K164A, K168A, K170A) (domain or fragment, UniProt Q9Y448 135-225)
chain: VTKITALRRENGQMAATDTATRRNVRAGYAPLSAQASEEELKDKNQLLEAVNKQLHQKLTETQGELKDLTQKVELLEKFRDNCLAILESKG
B6: GST-SKAP^175–225 (domain or fragment, UniProt Q9Y448 175-225)
chain: LKDKNQLLEAVNKQLHQKLTETQGELKDLTQKVELLEKFRDNCLAILESKG

Key:
[1] = molecular target: T1, taxol-stabilized microtubules (α-/β-tubulin) (bovine) (UniProt P81947+Q6B856); experiment: co-sedimentation; microtubule-binding reaction: 3 μM microtubules (taxol-stabilized or subtilisin-treated) and 3 μM protein; 25 mM Hepes pH 7.5, 150 mM NaCl, 1 mM MgCl2, 1 mM EGTA, 2 mM DTE; 350,000 g, 25 °C; both purified
[2] = molecular target: T1, taxol-stabilized microtubules (α-/β-tubulin) (bovine); experiment: co-sedimentation; taxol-stabilized microtubules with purified isolated constructs (Fig. 1d, Supplementary Fig. 2A); concentrations not told for these constructs; both purified
[3] = molecular target: T1, taxol-stabilized microtubules (α-/β-tubulin) (bovine); experiment: co-sedimentation; Kd determination: 0-10 μM taxol-stabilized microtubules (tubulin dimer), 1 μM BSA, 1 μM protein of interest; 25 mM Hepes pH 7.5, 150 mM NaCl, 1 mM MgCl2, 1 mM EGTA, 2 mM DTE; 10 min room temperature; 350,000 g, 25 °C; gel densitometry, quadratic fit; apparent Kd; both purified

Row | Binder | binding [1] | binding [2] | further results
1 | B1 | binds weakly | – | –
2 | B2 | – | no binding | –
3 | B3 | – | no binding | –
4 | B4 | – | no binding | –
5 | B5 | – | – | binding [3]: no binding (tested: 0–10 μM microtubules, 1 μM protein)
6 | B6 | no binding (tested: 3 μM microtubules, 3 μM protein) | – | –
